{"source": "PubChem BioAssay (Tox21)", "note": "The shares of active, inactive and inconclusive entries below differ from those in the screen. Potencies of inconclusive entries are left out as doubtful fits. The source made the active and inactive calls. Calls come from the whole dose curve; as a rule, active = well fitted activation curve with a large enough effect in the signal ratio in the repeat runs (not every such curve was filed as active); inconclusive = weak or mixed curves; inactive = flat fitted curve, though single readings scatter; the % refers to the signal ratio. % is set by controls: 0 for no effect and ±100 for the full control effect; potency is the fitted concentration of half-maximal effect; tags give direction and shape of the fitted curve or compound fluorescence and quenching."}
{"assay": "qHTS assay to identify small molecule agonists of the TGF-beta/Smad signaling pathway (AID 1346859)", "conditions": "SBE-bla HEK293T, TGF-beta/Smad beta-lactamase reporter, 5 h; activation: at 76.8 µM (top of the series)", "outline": "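SBE-bla HEK293T cells plated overnight, then compound exposure for 5 h at 37 C. Beta-lactamase reporter read with LiveBLAzer B/G FRET substrate after 2 h at room temperature, fluorescence at 405 nm excitation, 460/530 nm emission.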"}
{"smiles": "O=C1c2ccccc2C(=O)C1c1nc2ccccc2c(Br)c1O", "Potency": "inconclusive [rising, partial curve]"}
{"smiles": "CCCCC/C=C\\C/C=C\\CCCCCCCC(=O)OC", "Potency": "inconclusive [rising, partial curve]"}
{"smiles": "CC1=CC(=O)CC(C)(C)C1", "Potency": "inactive"}
{"smiles": "Brc1cc(-c2ccc(Br)c(Br)c2Br)cc(Br)c1Br", "activation": "inactive: -1.82% [at 35.3 µM]"}
{"smiles": "CC(=O)[C@H]1[C@H](C#N)C[C@H]2[C@@H]3CC=C4C[C@@H](O)CC[C@]4(C)[C@H]3CC[C@@]21C", "Potency": "inconclusive [rising, partial curve]"}
{"smiles": "Cc1cc(C(=O)O)ccc1[N+](=O)[O-]", "activation": "inactive: -4.02%"}
{"smiles": "O=C(/C=C/c1ccc([N+](=O)[O-])cc1)c1ccccc1", "Potency": "inconclusive [rising, partial curve, poor fit]"}
{"smiles": "O=C(O)c1cc(-c2ccc(F)cc2F)ccc1O", "Potency": "inconclusive [rising, full curve]"}
{"smiles": "Cn1sccc1=O", "Potency": "inconclusive [falling, partial curve]"}
{"smiles": "NS(=O)(=O)c1cc(C2(O)NC(=O)c3ccccc32)ccc1Cl", "note": "(stereo not given)", "activation": "inactive: -0.374% [at 35.3 µM]"}
{"smiles": "C=C(C)C1CC=C(C)C(=O)C1", "note": "(stereo not given)", "activation": "inactive: 1.64%"}
{"smiles": "NS(=O)(=O)c1cc2c(cc1Cl)NC=NS2(=O)=O", "Potency": "inactive"}
{"smiles": "c1ccc(SSc2ccccc2)cc1", "Potency": "inconclusive"}
{"smiles": "Cc1cn([C@H]2C[C@H](N=[N+]=[N-])[C@@H](CO)O2)c(=O)[nH]c1=O", "Potency": "inconclusive [rising, single point]"}
{"smiles": "CC/C=C\\CCOC(C)=O", "activation": "inactive: -1.85%"}
